# Measurements: article PMC4336329 (PLoS ONE, 2015)
# About 14,000 (4.5%) of roughly 310,000 compounds showed an effect of 50% or more. Effects have a minus sign here. Some of the results follow.
# Target: human ether-à-go-go-related gene (hERG) potassium channel (human, UniProt Q12809)
# Assay: primary screen, population patch clamp on CHO cells stably expressing hERG
# 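Also: peak tail current of the secondary pulse compared with the same well before compound.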
# human ether-à-go-go-related gene (hERG) potassium channel, sequence (Q12809 whole entry, looked up): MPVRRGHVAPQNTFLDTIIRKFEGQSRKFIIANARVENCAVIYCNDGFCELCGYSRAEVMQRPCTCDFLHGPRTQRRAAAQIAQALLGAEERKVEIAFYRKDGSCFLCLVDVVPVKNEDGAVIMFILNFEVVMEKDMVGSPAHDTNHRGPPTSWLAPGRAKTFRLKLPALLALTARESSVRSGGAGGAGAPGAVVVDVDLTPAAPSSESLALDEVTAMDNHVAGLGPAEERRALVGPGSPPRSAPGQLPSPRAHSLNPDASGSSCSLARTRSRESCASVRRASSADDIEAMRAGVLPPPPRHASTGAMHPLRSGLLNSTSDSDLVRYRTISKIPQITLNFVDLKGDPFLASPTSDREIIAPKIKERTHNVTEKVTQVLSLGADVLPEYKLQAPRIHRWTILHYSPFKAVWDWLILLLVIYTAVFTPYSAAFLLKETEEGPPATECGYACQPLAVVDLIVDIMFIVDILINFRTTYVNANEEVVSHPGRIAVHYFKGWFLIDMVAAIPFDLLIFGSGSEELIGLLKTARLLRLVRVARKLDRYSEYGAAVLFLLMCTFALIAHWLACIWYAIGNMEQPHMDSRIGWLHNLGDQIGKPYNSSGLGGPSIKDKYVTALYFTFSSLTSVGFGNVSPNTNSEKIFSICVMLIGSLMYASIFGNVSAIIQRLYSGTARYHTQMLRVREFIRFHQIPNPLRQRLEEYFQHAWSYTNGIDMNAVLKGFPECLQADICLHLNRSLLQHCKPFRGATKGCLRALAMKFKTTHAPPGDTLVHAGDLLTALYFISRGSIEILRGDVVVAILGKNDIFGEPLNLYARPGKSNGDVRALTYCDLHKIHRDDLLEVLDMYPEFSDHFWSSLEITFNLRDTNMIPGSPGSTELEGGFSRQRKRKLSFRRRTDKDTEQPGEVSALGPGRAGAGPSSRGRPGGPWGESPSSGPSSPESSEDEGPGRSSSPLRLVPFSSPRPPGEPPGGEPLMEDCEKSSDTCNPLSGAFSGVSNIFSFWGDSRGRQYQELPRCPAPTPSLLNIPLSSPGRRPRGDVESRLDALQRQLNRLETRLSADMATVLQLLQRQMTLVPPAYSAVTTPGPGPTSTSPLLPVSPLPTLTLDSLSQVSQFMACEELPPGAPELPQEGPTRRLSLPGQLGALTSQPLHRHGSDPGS
row,Structure (SMILES),"hERG current change (%, negative = inhibition) at 10uM"
1,Cc1cccc(NC(=O)COC(=O)c2cccc(S(=O)(=O)N3CCCCCC3)c2)c1,-3.72%
2,O=C(COC(=O)[C@H](Cc1ccccc1)NC(=O)c1cccs1)Nc1cc(F)ccc1F,1.18%
3,CC(=O)Nc1ccc(Oc2ccc(-c3noc(C)n3)cc2)cc1,-7.05%
4,COc1cc(C(=O)NC(=S)Nc2ccc3[nH]c(=O)[nH]c3c2)cc(OC)c1OC,11.4%
5,CCS(=O)(=O)c1nc(S(=O)(=O)c2ccc(Cl)cc2)c(N2CCC(O)CC2)s1,-17.3%
6,CCCCCCCCC(=O)N/N=C(\C)c1cccnc1,-4.59%
7,CCn1c(Cc2c(C)[nH]c3ccccc23)nnc1SCC(N)=O,13.4%
8,CCCC(=O)N1CCN(c2ccc([N+](=O)[O-])cc2Cl)CC1,-52.2%
9,Cc1ccc(S(=O)(=O)Cc2cccc(C(=O)N3CCOCC3)c2)cc1,5.76%
10,O=C(Cc1ccccc1)NC1c2ccccc2-c2ccccc21,-2.8%
11,CCOC(=O)Cc1csc(NC(=O)CCN2C(=O)c3ccccc3C2=O)n1,-13.1%
12,C/C(=N\NC(=O)c1ccc(F)cc1)c1ccc(NC(=O)Cc2ccccc2)cc1,-16.9%
13,CC(C)C(c1nnnn1CCc1ccccc1)N1CCC(C(N)=O)CC1 (centres unmarked),3.58%
14,O=C(CN1C(=O)c2ccccc2C1=O)NC1CCCCCC1,20.4%
15,COc1ccc(-c2ccc(C#N)c(OC)n2)cc1,14.4%
16,COc1ccccc1C(c1nnnn1C(C)(C)C)N1CCN(Cc2ccccc2)CC1.Cl (centres unmarked),-30.4%
17,Cc1cc(=O)oc(C)c1C(=O)NCc1ccccn1,5.7%
18,COc1ccc(C(=O)N(c2ccc(OC)cc2)S(=O)(=O)c2cccs2)cc1,2.98%
19,NC(=O)c1cc(Br)cc(C2CCCCC2)c1O,10.1%

row,Structure (SMILES),"hERG current change (%, negative = inhibition) at 10uM"
1,COc1ccc(C2=[N+]([O-])C(C)(C)C(c3ccccc3)=N2)cc1,-14.8%
2,Cc1ccccc1C(=O)NC(=S)Nc1sc2c(c1C#N)CCCC2,-14.4%
3,COc1ccc(NC(=S)N(CCCN2CCOCC2)C(C)c2cc3cccc(OC)c3o2)cc1 (centres unmarked),-35.5%
4,Cc1ccc(C(=O)COc2ccccc2N2C(=O)c3ccccc3C2=O)cc1,1.98%
5,CN(C)/C=C/C(=O)c1ccc([N+](=O)[O-])c(CS(=O)(=O)c2ccc(Cl)cc2)c1,-48.7%
6,CC1CCCC(NC(=O)c2ccc3c(c2)OCO3)C1C (centres unmarked),-2.75%
7,COc1cc(C(=O)N2CCC(NC(=O)C(Cc3ccccc3)NC(C)=O)CC2)cc(OC)c1OC (centres unmarked),-9.2%
8,c1cncc(Cc2cc3ccccc3[nH]2)c1,-3.91%
9,COc1cccc(C(=O)Nc2ccncc2)c1,6.81%
10,O=C(CN1CCN(Cc2ccccc2)CC1)NC(=O)NC1CCCCC1,-46.3%
11,COC(=O)c1cccc(NC(=O)Cn2cnc3ccccc3c2=O)c1,13.4%
12,NC(=O)C1CCN(C(=O)CC2(CC(=O)O)CCCC2)CC1,23.5%
13,CCC(=O)NC(c1ccc(C)cc1)c1ccc2cccnc2c1O (centres unmarked),9.79%
14,COc1ccccc1OCC(=O)NCCSCc1ccccc1Cl,-22.6%
15,CCOC(=O)c1c(NC(=O)CSc2cccc[n+]2[O-])sc(C(=O)Nc2ccccc2)c1C,-30.1%
16,CCS(=O)(=O)n1nc(-c2cccnc2)nc1NCc1ccc(F)cc1,-26.4%
17,Cc1ccc(-c2nnc(SCc3nc4ccccc4[nH]3)n2Cc2ccco2)cc1,-4.93%
18,Cc1ccc(N2CC(C(=O)Nc3nc4ccc(S(C)(=O)=O)cc4s3)CC2=O)cc1 (centres unmarked),-23.9%
19,N#CC(C#N)=Cc1ccc(-c2ccccc2F)o1,7.76%

row,Structure (SMILES),"hERG current change (%, negative = inhibition) at 10uM"
1,Cc1cc(-c2ccccc2)nc(SCC(=O)N2CCCC2)n1,-2.19%
2,S=c1[nH]nc(C2CCCCC2)n1/N=C/c1ccccc1Br,16.2%
3,COC(=O)c1c(NC(C)=O)sc2c1CCN(Cc1ccccc1)C2.Cl,-9.29%
4,COc1ccccc1NS(=O)(=O)c1cc(C(=O)NCC(c2ccc(F)cc2)N2CCOCC2)ccc1C (centres unmarked),-19.1%
5,O=C(NCCCO)c1cc2c([nH]c3ccccc32)c(-c2ccccc2)n1,-33.8%
6,Cc1nn2c(N)c(C#N)cnc2c1-c1ccc(Cl)cc1,-0.156%
7,O=[N+]([O-])c1cccc(/C=N/Nc2nc(N3CCOCC3)nc(N3CCOCC3)n2)c1,5.21%
8,CCCOc1ccc(N2C(=O)C3ON(c4ccccc4)C(c4ccc(O)c(OC)c4)C3C2=O)cc1 (centres unmarked),-6.84%
9,COc1ccc(NC(=O)NC2CCCCCCC2)c(OC)c1,8.12%
10,O=c1[nH][nH]c(-c2ccccc2)c1C=Nc1ccc(C(F)(F)F)cc1,12%
11,O=C(NCC1CCCO1)C1CCN(S(=O)(=O)c2cccc3cccnc23)CC1 (centres unmarked),6.1%
12,Cc1cc2ccccc2n1CCNC(=O)C(C)Oc1ccccc1 (centres unmarked),0.186%
13,O=C(Cn1nc(C(=O)O)c2ccccc2c1=O)Nc1cc(Cl)cc(Cl)c1,12.1%
14,N#Cc1ccccc1OCC(=O)N1CCN(C(=O)c2ccco2)CC1,-3.36%
15,Cc1ccccc1NS(=O)(=O)c1ccc(NC(=O)CSCc2ccc(Br)cc2)cc1,16.5%
16,CCOc1cc(N2CCOCC2)c(OCC)cc1NC(=O)COC(=O)CCOc1ccc(C(C)(C)C)cc1,-37.1%
17,CCN(/N=C/c1cccs1)c1cc(=O)n(C)c(=O)[nH]1,-8.12%
18,Cc1ccc(-n2c(C)cc(C(=O)CN3CCOCC3)c2C)cc1,-5.65%
